Reference: publication PMC4336329 (PLoS ONE, 2015)
Out of some 310,000 compounds screened, about 2,200 (0.71%) showed an effect of 50% or more. The effect is printed as a negative number. The list shows a part of the results.

Biological target: human ether-à-go-go-related gene (hERG) potassium channel (human, UniProt Q12809)
Assay: primary screen, population patch clamp on CHO cells stably expressing hERG

Chain of human ether-à-go-go-related gene (hERG) potassium channel (Q12809 whole entry, looked up): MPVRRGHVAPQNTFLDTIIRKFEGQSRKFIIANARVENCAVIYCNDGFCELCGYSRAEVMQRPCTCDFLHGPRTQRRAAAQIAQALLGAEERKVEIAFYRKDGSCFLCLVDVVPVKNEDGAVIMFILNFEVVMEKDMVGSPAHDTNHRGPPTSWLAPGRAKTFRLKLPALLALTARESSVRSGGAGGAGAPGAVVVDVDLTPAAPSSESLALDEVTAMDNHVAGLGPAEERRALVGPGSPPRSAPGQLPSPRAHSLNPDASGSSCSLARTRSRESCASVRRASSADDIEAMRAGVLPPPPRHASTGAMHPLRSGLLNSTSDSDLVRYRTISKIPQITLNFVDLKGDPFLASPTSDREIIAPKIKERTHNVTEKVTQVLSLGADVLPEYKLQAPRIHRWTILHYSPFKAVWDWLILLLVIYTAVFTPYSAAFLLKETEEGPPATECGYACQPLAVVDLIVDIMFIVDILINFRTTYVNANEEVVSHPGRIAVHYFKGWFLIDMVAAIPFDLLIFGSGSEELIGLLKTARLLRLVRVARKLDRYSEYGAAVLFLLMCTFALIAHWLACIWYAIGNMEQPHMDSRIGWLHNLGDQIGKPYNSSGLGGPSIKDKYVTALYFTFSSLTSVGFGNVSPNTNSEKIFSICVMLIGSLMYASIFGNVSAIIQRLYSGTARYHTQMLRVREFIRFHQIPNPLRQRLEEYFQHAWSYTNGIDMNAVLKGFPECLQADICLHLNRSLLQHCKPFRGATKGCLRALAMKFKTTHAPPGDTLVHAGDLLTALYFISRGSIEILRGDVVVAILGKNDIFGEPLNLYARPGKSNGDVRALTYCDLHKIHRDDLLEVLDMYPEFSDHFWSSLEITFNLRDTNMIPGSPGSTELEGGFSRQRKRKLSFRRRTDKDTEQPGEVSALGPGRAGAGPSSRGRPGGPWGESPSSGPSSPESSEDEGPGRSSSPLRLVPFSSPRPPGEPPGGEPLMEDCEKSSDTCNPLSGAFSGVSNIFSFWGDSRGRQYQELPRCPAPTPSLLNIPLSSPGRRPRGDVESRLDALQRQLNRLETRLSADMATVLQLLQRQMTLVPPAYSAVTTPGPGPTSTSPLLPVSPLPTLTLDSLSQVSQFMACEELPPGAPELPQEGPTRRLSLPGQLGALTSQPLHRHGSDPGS

SMILES | hERG current change (%, negative = inhibition) at 1uM [%]
Cc1ccc(S(=O)(=O)NCCC(=O)Nc2nnc(C)s2)cc1 | -1.76
COc1ccc(S(=O)(=O)NC(CC(=O)O)c2ccco2)cc1 (stereo not drawn) | -2.15
O=S(=O)(c1ccc(-n2cnnn2)cc1)N(C1CCCCC1)C1CCCCC1 | 9.04
CCOC(=O)c1sc2ncnc(Nc3cccc(C(=O)O)c3)c2c1C | 18.6
NC(=O)CSc1nnc(C2CC2)n1Cc1ccccc1 | 6.27
COCCCNC(=O)c1cc2c(=O)n3cccc(C)c3nc2n(C(C)C)c1=N | -46.1
Cc1ccc(OCC(=O)Nc2nnc(S(=O)(=O)N3CCCCC3)s2)cc1 | 7.35
Cc1c(CN2CCC(n3nccc3NC(=O)C3CCOC3)CC2)[nH]c2ccccc12 (stereo not drawn) | -11
O=C(CNC(=O)c1ccccc1Cl)Nc1ccc(F)cc1 | 8.07
CSc1ccc(CN(C)CC(=O)Nc2c(F)cccc2F)cc1.O=C(O)C(=O)O | 7.89
Cc1ccc(NC(=O)COC(=O)c2c(-c3ccccc3)noc2C)cc1 | -1.78
CCCCn1c(=NC(=O)c2ccc3c(c2)OCO3)c(C#N)cc2c(=O)n3cccc(C)c3nc21 | 12.4
CN1CCC(=NNC(=O)CN(c2cccc([N+](=O)[O-])c2)S(=O)(=O)c2ccccc2)CC1 | 8.11
COC(=O)c1ccc(N2CCCCC2)c(NS(=O)(=O)c2ccc(C)cc2)c1 | 12.6
Cc1nnc(NC(=O)C(c2ccccc2)c2ccccc2)s1 | 8.35
O=C(CN(Cc1ccc(F)cc1)C(=O)c1csnn1)NC1CCCC1 | 16.1
COc1ccc(NC(=O)C(=O)NCCCO)cc1Cl | 11.7
COc1ccc(/C(N)=N/OC(=O)c2cccs2)cc1OC | 5.26
Cc1ccc(NC(=O)c2cccs2)cc1NC(=O)c1cccnc1 | 12.2
COc1ccc(NC(=O)C(Cc2ccccc2)n2cccc2)cc1OC (stereo not drawn) | 8.28
CC(=O)c1cccc(NC(=O)c2nc(-c3ccccc3)oc2C)c1 | 9.95
O=C(COc1ccc(-c2ccccc2)cc1)N1CCN(S(=O)(=O)Cc2ccccc2)CC1 | 5.51
CCN(C(=O)CSc1nc2n[nH]c(C)c2c(=N)n1-c1ccc(Cl)c(C)c1)c1cccc(C)c1 | 9.64

SMILES | hERG current change (%, negative = inhibition) at 1uM [%]
Cc1cccc(CCNC(=O)c2cc(S(=O)(=O)N3CCCC3)cn2C)c1 | 4.9
C=CCn1c(SCC(=O)Nc2cc(C)on2)nc2sc(CC)cc2c1=O | -0.113
COC(=O)CCc1ccc(O)cc1 | 8.17
O=C(Cn1cnc2ccccc21)c1ccc(Cl)cc1 | 14.2
COc1ccccc1CN1CC(C(=O)NCCCc2ccc(F)cc2)CCC1=O (stereo not drawn) | 4.29
COc1ccc(/C=C(\C#N)C(=O)NCC2CCCO2)cc1OC (stereo not drawn) | -10.6
C=CCc1cccc2cc(C(=O)NC3CCCC3)c(=O)oc12 | 2.38
COc1ccc(N2CCN(Cc3nc4c(c(=O)n(C)c(=O)n4C)n3CC(C)=O)CC2)cc1 | 0.812
CCOc1ccc(N2CC(C(=O)N/N=C/c3sccc3C)CC2=O)cc1 (stereo not drawn) | 0.725
CCCN(CCO)Cc1ccc(Br)cc1 | 9.16
CN1C(=O)C2(N=c3ccccc3=N2)c2ccccc21 | -0.21
CC(=O)c1cccc(NC(=O)C2CCCN(S(=O)(=O)c3ccccc3)C2)c1 (stereo not drawn) | 7.51
CC1=CC(C)C2(CO)COC(c3cccnc3)C1C2C (stereo not drawn) | 3.82
CC1Cc2ccccc2N1C(=O)CCN1C(=O)C2C3C=CC(C3)C2C1=O (stereo not drawn) | 11.5
COc1ccc(OCCC(=O)OCC(=O)NCCC2=CCCCC2)cc1 | 6.2
Cc1cnc(NC(=O)Cc2cccs2)s1 | 1.74
O=C(NNCC(O)COc1ccccc1)c1ccccc1 (stereo not drawn) | 10.8
Nc1[nH]ncc1-c1ccc(F)cc1 | 13.8
Cc1cccc(OCc2nnc(SCC(=O)Nc3ncc(C)s3)o2)c1 | 33.5
CCOc1ccc(-n2c(C)c(C(C)=O)c3cc(O)ccc32)cc1 | 0.305
Cc1ccc(S(=O)(=O)N2CCC(C(=O)NC3CCCCC3C)CC2)cc1 (stereo not drawn) | 13.9
CCCn1c(SCC(=O)NC2CCC(C)CC2)n[nH]c1=O (stereo not drawn) | 17
CC(Sc1ccccc1)C(=O)NCC(c1ccco1)N1CCCCC1 (stereo not drawn) | 12.8

SMILES | hERG current change (%, negative = inhibition) at 1uM [%]
N#CCSc1ccsc1C(=O)Nc1ccc(F)cc1 | -5.24
CCCOC(=O)c1ccc(O)c(OC)c1 | 13.1
Cc1[nH]c2c(Cl)cccc2c1CCNC(=O)C1CCCCC1C(=O)OCC(F)(F)F (stereo not drawn) | 10.2
COc1ccccc1CNC(=O)[C@H](C)NC(=O)C1CCN(C(=O)[C@@H]2CCCN2C(=O)OC(C)(C)C)CC1 | 4.82
COc1ccc2[nH]c(C(=O)N3CCN(C)CC3)c(C)c2c1 | 9.57
COc1ccc(/C=C(\C#N)C(=O)OCC(=O)Nc2ccc(C(C)(C)C)cc2)cc1 | 7.2
Br.CC1CCN(CC(=O)c2ccccc2Cl)CC1 | 9.96
CCN(CC)CCCN1C(=O)C(O)=C(C(=O)c2ccco2)C1c1ccc(OC(C)C)cc1 (stereo not drawn) | 2.89
COC(=O)c1sccc1NC(=S)OC | 10.8
O=C(COC(=O)CSc1ccc(F)cc1)NNC(=O)c1ccc([N+](=O)[O-])cc1 | -7.4
O=S(=O)(c1ccccc1)c1nc(NC2CC2)sc1Cl | 8.51
O=C(NCCc1ccc(C(F)(F)F)cc1)c1ccc(Cl)nc1 | 12
COc1ccc(S(=O)(=O)N(C)CC(=O)Nc2ccccc2OC)cc1 | 2.01
Cn1c(SCC(=O)N2CCN(Cc3ccccc3)CC2)nnc1-c1ccncc1 | -1.06
CSc1nc(C)cc(OCCO)n1 | 11.1
Oc1ccc(/C=N/Nc2ncc(Br)cn2)c(O)c1 | 8.14
COc1ccc(C2CC(=O)c3cnc(N4CCc5ccccc54)nc3C2)c(OC)c1 (stereo not drawn) | 8.5
CCOc1ccc(/C=N/NC(=O)CN2CCCCC2)cc1OCC | 6.57
COc1ccc(NC(=O)CN2CCN(CC(=O)Nc3ccc(F)cc3)CC2)c(OC)c1 | -83.3
COc1cc(NC(=O)c2onc(C)c2Cl)cc(OC)c1OC | 8.4
O=S(=O)(Nc1ccc(Oc2ncccn2)c(Cl)c1)c1ccc(F)cc1 | 11.2
COC(=O)c1ccc(C)c(NC(=O)c2ccc(CN3CCc4ccccc4C3)cc2)c1 | 11.6
COc1ccccc1CCC(=O)OC(C)C(=O)Nc1c(C)n(C)n(-c2ccccc2)c1=O (stereo not drawn) | 11.1

SMILES | hERG current change (%, negative = inhibition) at 1uM [%]
COc1ccc(-c2nc(CSCC(=O)NCC3CCCO3)c(C)o2)cc1OC (stereo not drawn) | -2.41
O=C(NCCc1ccccc1Cl)C1CCC(=O)N(Cc2ccc(Cl)cc2)C1 (stereo not drawn) | -15.8
Cc1ccc2nc(-c3ccc(NC(=O)CN4C(=O)NC(C)(c5ccc(OC(F)F)cc5)C4=O)cc3)sc2c1 (stereo not drawn) | 14.5
CC(=O)NS(=O)(=O)c1ccc(NC(=O)C(Sc2ccccc2)c2ccccc2)cc1 (stereo not drawn) | 7.09
COc1ccccc1C1c2ccc3ccccc3c2Oc2ncn(CCN(C)C)c(=N)c21 (stereo not drawn) | -7
CCc1ccccc1NC(=S)N1CCCCCC1 | 14.7
CCOC(=O)c1ccc(NC(=O)CSc2nc(N)c(NC(=O)c3ccc(Br)o3)c(=O)[nH]2)cc1 | 8.98
COc1cc(C(=O)O/N=C2/C=C(C)C(=O)C=C2C)cc(OC)c1OC | 4.89
O=C(CNC(=O)c1ccccc1F)OCc1csc(-c2ccccc2)n1 | 6.6
CCOC(=O)c1cn(Cc2ccccc2)c(C(=O)OC(C)(C)C)c1O | 12.4
O=S(=O)(Cc1ccccc1)NCc1cccnc1 | -5.55
Cc1ccccc1NC(=O)COC(=O)C1(C)CC1(Cl)Cl (stereo not drawn) | -1.44
COc1cc(CC(=O)OCC(=O)NCC(C)C)cc(OC)c1OC | 13.6
Cc1ccc(CNC(=O)COC(=O)c2cccc(S(=O)(=O)N3CCCCC3)c2)cc1 | -4.91
Cc1ccccc1N(CC(=O)N/N=C/c1cc(C)n(-c2ccccc2C)c1C)S(C)(=O)=O | 9.8
NS(=O)(=O)c1ccc(N=Nc2c(=O)[nH]n3c(=O)c4c([nH]c23)CCCC4)cc1 | 20.6
Cc1csc(NC(=O)CCc2ccc(S(=O)(=O)N3CCOCC3)cc2)n1 | 0.101
O=C(Nc1ccc(S(=O)(=O)O)cc1)c1ccc2c(c1)S(=O)(=O)c1ccccc1C2=O | 16.7
COc1ccc(CCN=c2c([N+](=O)[O-])nn(-c3cccc(C)c3)n2O)cc1OC | -6.3
O=C1CCc2cc(S(=O)(=O)Nc3ccc(F)cc3)cc3c2N1CC3 | 6.99
COc1cc(OC)cc(C(=O)NCC2CCCN(C(=O)c3csc(C)n3)C2)c1 (stereo not drawn) | 10.6
